These results are taken from the supplement of paper PMC12632987.

To fix the notation:
B1: GBRAP_11_2884 (protein)
chain: DKEKLKKLAKLAEELAKTLEQLLKEGVDNEKLREEAEKLLEELEKLVKEHADEAEKKLAEILKENWEKAKKDPENAEEYVKEALAVAKVLEGQFLLKLEE
B2: GBRAP_52_5849 (protein)
chain: SRERARRLAEELVELRLEGREEELEARIRELVETLSEEEVLEILRELAELAKEADPERLEAILEVAELLADAAEEAGFDEDELSYALAEVAAAAYKQLQK
B3: GBRAP_128_3389 (protein)
chain: SQEEKVKEAFELIDEIVEADVETARELARELMKLVGTLSLEDQEKVFEYFESKLPELTAEKLEVVADVLREERPKFDPESQLLVAGLEVEALNAAEEKEE
B4: GBRAP_95_7017 (protein)
chain: EDDQLAADSLAEVLEGYVELGEEEKAREAAKELVKVVAENPSVKFPSDLSPEAAKIIAEAARETLSKEEAAAVLEKLAADAADPEVKAIAEAALAEVKAE
B5: GBRAP_53_6413 (protein)
chain: AEAEIAALRAEVKATARAAAAADEATLAALVAEIGALLAALKAAGMPDEELTALAEEVARTLRAAGAPDSALVALAGHLAALGLEEATAAVAEEAVEELE
B6: GBRAP_74_6524 (protein)
chain: MAELLAALRAAAAAGDVAAAVALAREIIATGDLETIEEAAEILVAFVEAHLDALTPEELAALSDTLAELADELMERGGDSEVINAVAAAAVRLEERLAAL
B7: GBRAP_14_3836 (protein)
chain: MEEIRKVLEEAAREIARELAELAGLDEEEVRARLLEIVDEALALYEETGDIGEAMDYFERRALALVEELLADKSPELQARAKAIVRVRIGEAILEIEELE
B8: GBRAP_184_5274 (protein)
chain: MVRHVEIVAETGEEAIEQVRAAAEEARARGEKLRLTILLRNASVEEIIELFDLLKELREEGVIESAVVGIERELSEEEIDTILKAADEAGVKLVVAISDE
B9: GBRAP_160_4833 (protein)
chain: MEKVEKAKKYIREEFKEIIEMMKGQSAEERAAIVRVGMGEIIMYLEEEGVLTDELGDFIVEETDKIVDTILANPDLTDEELTALLEDAEKRIIAALEKEA
B10: GBRAP_11_2903 (protein)
chain: KKEKLEKLAKLLEEAAKLLEKLLKEGTDDEELLKEALKVAEEALKLGKEVLDESSVELLKEAVKLLKEAKENPEKAEQYVKEALAILRVLEGQVLLEIEE
B11: GBRAP_39_5667 (protein)
chain: EEEEENEDVVSYLEAVAAKYLYETGISLEEAFEEAKKVLKEYAEKHPELKELIEELIKLAEEKGEEAKLALIGIAVLIKEGTPLEEIKEKIEKVIAYFKS
B12: GBRAP_139_3685 (protein)
chain: SHLEKIIEKAKELTKKAVEEGEPYVKKLVEFLSTLSEEEFEAAAKAVAEELQKYDLDTAEKLADLILEKAEEILKDEDKRIIVEAELNRALALRAVREEE
B13: GBRAP_80_6859 (protein)
chain: AEARLAAAAARLKELLPEQAELIDRVVKIAKELGVPLEDIADLLEALAELAKVDKELAAELLKELLKDLEEEKKAGNSENALATVRGYAGEALMLAEELE
B14: GBRAP_195_5411 (protein)
chain: KKVESEVLRITKEDTEEEILEKIEEIIEKVKKKSNGVLVLVVARHPEIPEETVEKAVKEAQKKFPEIEVILEVFDDISLPLETLEKIAEMLRLNEEEELE
B15: GBRAP_48_5835 (protein)
chain: EEERLERAVEESLRVIRETAELLEEARAEGLSEAAIEAILIDAADELEEILERYLGLGEAFRALPLEERLAMVRELVETLREEGEEAARALIRERIAELA
B16: GBRAP_184_5344 (protein)
chain: KTLEVHIENKSLEEIVKEAEKYAKEAAAQGADLIISIDAEGLSDEELVKLVEEIGKIAKKEGVKNLTIGIDKEVDEETADKLLKVADKYGIKLTLALKDE
B17: GBRAP_90_7013 (protein)
chain: SATEEKIKELEHEKEVVLEEMDLGVVSARDDEELEEAMKILDEYNAEAATAVLSVKELKPIIGEEKAEKYIKEIREAGNDKEKIKELLEKAYEEAIKIAK
B18: GBRAP_160_4520 (protein)
chain: SAALEEAEKELEEAAKEAIEMVKGETAEQRAVIVDGEFGSFAMELASNPEYSDEMVDVVLKARDEIVDTILANPDLTDEELEELIEKAVEEAKKELRKLA
B19: GBRAP_160_4474 (protein)
chain: MEKVKKAVEELRKDVEETLEENEDLPPKDLLLAVEVTIGSNLMEWVEEGTLTDEQEDVVMEAMDEVRRLREESEDMSVEEVKERAREIIERMAERILALA

The full ranking holds about 4,500 sequences; the median of “median log2 fold change of GCK-ALFA target abundance (FLAG IP / Myc IP barcode read proportion)” is about 0.078, and the lowest 2% start at about -0.6. This is one part of the list.

The target of this experiment is GABARAP, O95166. Nature of the experiment: median log2 fold change of GCK-ALFA target abundance (FLAG IP / Myc IP barcode read proportion) (log2 ratio); each designed protein is fused to an ALFA-tag nanobody in HEK293 cells to bring the named protein to FLAG-tagged glucokinase (GCK); Myc marks an untargeted standard; higher = target protein stabilised (more abundant). Particulars: target protein: 3xFLAG-MCP-GCK-ALFA reporter; HEK293 landing pad (RPLP). The method, boiled down: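 An ALFA-nanobody-fused binder library was recombined into HEK293 landing-pad cells and induced with 2 μg mL^−1 doxycycline. Cells were transfected with a plasmid expressing a FLAG-tagged target and a Myc-tagged standard. After 48 h, lysates underwent anti-FLAG and anti-Myc immunoprecipitation, and circular RNA barcodes were reverse transcribed, amplified and sequenced. Target abundance is the per-binder median log2 ratio of FLAG to Myc barcode read proportions. Barcodes needed ≥10^−7 proportion in both replicates, binders ≥3 barcodes per replicate, and a 10^−6 pseudocount was added; the two replicates were pooled.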
Sequence of GABARAP, O95166 (O95166 whole entry, the tested form may be a part): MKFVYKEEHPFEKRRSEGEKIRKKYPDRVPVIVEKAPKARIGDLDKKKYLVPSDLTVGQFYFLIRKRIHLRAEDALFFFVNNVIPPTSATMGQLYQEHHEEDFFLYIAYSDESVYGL
As for B1, the “median log2 fold change” value worked out at 0.31.

Consider B2, for which the “median log2 fold change” value is -0.288.

For the molecule B3, the “median log2 fold change” value is 0.0876.

Take B4: the “median log2 fold change” value was found to be 0.373.

With B5, the “median log2 fold change” value was determined as 0.295.

With B6, the “median log2 fold change” value was determined as 0.174.

With B7, the “median log2 fold change” value is -0.154.

Take B8: the “median log2 fold change” value was -0.111.

Take B9: the “median log2 fold change” value is 0.0874.

With B10, the “median log2 fold change” value stood at 0.268.

Take B11: the “median log2 fold change” value was 0.11.

Take B12: the “median log2 fold change” value was -0.0605.

Consider B13, for which the “median log2 fold change” value was 0.0818.

With B14, the “median log2 fold change” value was 0.0189.

As for B15, the “median log2 fold change” value turned out to be 0.091.

For B16, the “median log2 fold change” value was 0.42.

As for B17, the “median log2 fold change” value was determined as 0.233.

Turning to B18, the “median log2 fold change” value was found to be 0.108.

For B19, the “median log2 fold change” value is -0.295.
